Among all 48,000 compounds or so, about 450 (0.94%) were called active. Inconclusive results (about 19%) are left out. The call rests on the fitted dose curve; in most records, active means well fitted inhibition curve with a large enough effect; inconclusive means small, poorly fitted or top-dose-only effect; inactive means no such curve, though single readings can be large or run the other way. The list shows a part of the results.
Test: Primary qHTS for Identification of Small Molecule Inhibitors of Huntingtin Promoter Activity; further: nearly all actives have a fitted effect of over 50% in size
Conditions: HEK293 HTT promoter firefly luciferase reporter (activity 0% = vehicle and -100% = no light), 24 h; series mostly up to 57.5 µM; activity change, negative = inhibition: at the top concentration
Summary of the method: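 HEK293 cells carrying firefly luciferase reporters were seeded at 2,500 per well in Opti-MEM and cultured for 24 h. They were then treated with compounds at up to 57.5 uM final for 24 h at 37 degrees C before Dual-Glo luminescence readout.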

Activity change, negative = inhibition, inactive:
Cc1ccccc1NC(=O)c1sc2nc3n(c(=O)c2c1C)CCC3 102%
Cc1ccc(-n2nnc(-c3nc(-c4cccs4)no3)c2N)c(C)c1 64.4%
CC(C)c1ccc(OCC(=O)Nc2c(C(=O)c3ccc(F)cc3)oc3ccccc23)cc1 15.6%
COc1ccccc1CNC(=O)Cn1ncn2c(cc3sccc32)c1=O 8.21%
Cc1ccc(Nc2c(-c3ccsc3)nc3c(C)cccn23)cc1 -7.86%
COc1ccc(S(=O)(=O)NCc2cccn2Cc2cccc(C)c2)cc1 0%
COc1ccccc1NC(=O)CC(c1cc(OC)c(OC)c(OC)c1)N1Cc2ccccc2C1=O (configuration not stated) -8.1%
Cc1c(C)n(C)c2ccc(C(=O)NCc3cccc(F)c3)cc12 2.54%
COc1cc2c(cc1NC(=O)COc1ccc(Cl)cc1Br)oc1ccccc12 -5.08%
Cc1cc(=O)c2cc(C(=O)Nc3ccccc3C)ccc2[nH]1 -7.53%
CCOc1cc2sc(N3CCC(C(=O)Nc4cc(C)cc(C)c4)CC3)nc2cc1Br 65%
COC(=O)c1cc2sc(Cl)cc2n1Cc1cc(C)ccc1C -4.2%
COc1ccc(Cn2ccc3nc(C)c(C(=O)NCc4cccc(OC)c4)cc3c2=O)cc1 -22.4%
CCc1ccccc1NC(=O)Cn1c2ncccc2c(=O)n1-c1ccccc1 -27.4%
COC(=O)c1ccc(CSc2nnc3ccc4ccccc4n23)cc1 33.5%
COc1cc(F)c(S(=O)(=O)Nc2c(C)n(C)n(-c3ccccc3)c2=O)cc1OC -4.92%
CCn1cc2c(n1)-c1c(oc(C(=O)Nc3cccc(C(F)(F)F)c3)c1C)CC2 6.38%
Cc1ccc(N(C)C(=O)c2cc(S(=O)(=O)N3CCOCC3)cn2C)cc1 -4.25%
CCCN(Cc1cccs1)C(=O)Nc1cc(OC)ccc1OC -7.36%
O=C(CN1CCSc2ccccc21)N1CCN(c2ccc(F)cc2)CC1 -18.3%
COc1ccc(CCNC(=O)CCCCn2c(=O)c3ccccc3n(Cc3ccccc3Cl)c2=O)cc1OC -12.5%
COc1ccccc1-c1noc(CCCC(=O)Nc2cc(C)ccc2C)n1 -2.63%
COc1ccc(C(=O)Nc2ccc(C(=O)OCc3cc(=O)n4nc(C5CC5)sc4n3)cc2)cc1 2.21%
Cc1ccc(-n2nc3c(N4CCC(C(=O)NCc5ccccc5Cl)CC4)nnc(C)c3c2C)cc1 -2.24%
CC(=O)c1ccc(NC(=O)CCOc2ccccc2)cc1 46.5%
CCOC(=O)c1c(C)[nH]c(C)c1S(=O)(=O)NCC(=O)N1CCN(c2ccccc2OC)CC1 -4.09%
CCN(CC)C(=O)Nc1ccc2c(c1)N(Cc1ccccc1)C(=O)c1ccccc1S2 -5.63%
CCc1cccc(C)c1NC(=O)CN1CCCN(Cc2ccccc2Cl)S1(=O)=O -23.8%
CCOc1ccccc1NC(=O)C(CC)n1c(C(=O)OC)cc2occc21 (configuration not stated) -21.8%
CCCn1c(=NC(=O)c2cc3ccccc3o2)c(C(=O)OCC)cc2c(=O)n3ccccc3nc21 -15.3%
COc1ccc(Nc2oc(/C=C/c3cccc(OC)c3)nc2C#N)cc1 1.47%
O=C(Cn1ncc2ccsc2c1=O)N1CCN(c2ccccc2F)CC1 -10.8%
CCCCN(CC)CCNC(=O)C1CCCN(S(=O)(=O)c2cccc3nsnc23)C1 (configuration not stated) 2.82%
O=S(=O)(c1ccc(-n2cnnn2)cc1)N1CCN(c2cccc(Cl)c2)CC1 -9.36%
Cc1c(C(=O)N2CCCCCC2)c(S(=O)(=O)N(Cc2ccccc2)C(C)(C)C)c(C)n1C -11.7%
Cc1ccc(-n2c(=O)c3cccnc3n2CC(=O)Nc2cc(Cl)ccc2C)cc1 10.7%
O=c1cc(-c2ccccc2)n2c(SCc3c(F)cccc3Cl)nnc2[nH]1 -5.83%
Cc1ccc(NC(=O)C(=O)NCc2ccco2)cc1 48.2%
Cc1ccc(NC(=O)CN(C)S(=O)(=O)c2cnc[nH]2)cc1 9.02%
Cc1ccc(NC(=O)Cn2c(=O)n(CCCCC(=O)NCc3ccccc3Cl)c(=O)c3ccccc32)cc1 0.612%
COc1ccccc1OCC(=O)NCC(c1ccc(Cl)cc1)N1CCOCC1 (configuration not stated) -20.8%
CCCc1nn2c(=O)cc(COc3ccc(/C=C(\C#N)C(=O)Nc4ccccc4)cc3)nc2s1 -10.2%
COc1ccc(C(CC(=O)NCc2ccccc2Cl)N2Cc3ccccc3C2=O)cc1OC (configuration not stated) -21.3%
CC(C)CC(=O)NC1(C(F)(F)F)C(=O)Nc2c1c(=O)[nH]c(=O)n2-c1ccccc1 (configuration not stated) 4.43%
CCc1nonc1NC(=O)c1oc2ccc(Br)cc2c1C -0.702%
CCc1ccc(-n2c(=O)c3c4c(sc3n(CC(=O)N3CCC(C)CC3)c2=O)CCC4)cc1 -13.1%
CCOC(=O)c1ccc(NC(=O)CSc2cc(=O)n(CC)c3ccccc23)cc1 -8%
Cc1ccc(S(=O)(=O)c2cn(Cc3cccc(C)c3)c3cc4c(cc3c2=O)OCO4)cc1 -4.98%
Cc1ccc(Cl)cc1NC(=O)c1oc2ccc(S(=O)(=O)N(C)C3CCCCC3)cc2c1C -3.59%
CC(=O)CSc1nnc2cc(C)c3cc(C)cc(C)c3n12 -1.93%
CCOc1ccc(CN(C(=O)c2cc(=O)c3cc(C)cc(C)c3o2)C2CCS(=O)(=O)C2)cc1 (configuration not stated) 3.65%
NC(=O)CC[C@@H]1NC(=O)[C@H](Cc2ccccc2)NC(=O)[C@H](Cc2ccc(O)cc2)NC(=O)CCSSC[C@@H](C(=O)N2CCC[C@H]2C(=O)N[C@@H](CCCN=C(N)N)C(=O)NCC(N)=O)NC(=O)[C@H](CC(N)=O)NC1=O 6.71%
Cc1oc2ncnc(N3CCCCC3)c2c1C(=O)N1CCN(c2cccc(Cl)c2)CC1 -25.2%
CCCN1C(=O)C2(c3ccccc31)c1c(oc3ccc(F)cc3c1=O)C(=O)N2CCCOC(C)C (configuration not stated) -8.25%
c1coc(-c2nc3n(n2)C2(CCCCC2)[C@@H]2CCCC[C@@H]2N3)c1 -27.8%
CN(C(=O)CSc1nnc(-c2ccccc2F)o1)C1CCCCC1 -19.2%
CCN(C(=O)CSc1nc(-c2ccc(C(C)C)cc2)no1)c1cccc(C)c1 -17%
Cc1ccc(-n2c(-c3ccco3)nc3c(cnn3-c3ccccc3Cl)c2=O)cc1 -8.26%
Cc1cccc(C(=O)Nc2nnc(S(=O)(=O)N(C)c3ccccc3C)s2)c1 -28.5%
COc1ccc(CNC(=O)CCCn2nc(C)c3c(C)n(-c4ccccc4)nc3c2=O)cc1 3.44%
CCCCCCc1ccc(O)cc1O 5.57%
CCn1cc2nc(SCc3cccc(Cl)c3)n(Cc3ccc(C)cc3)c(=O)c2n1 -10.7%
CC(C)c1cnc2c(c1SCC(=O)Nc1cccc(F)c1)c(=O)n(C)c(=O)n2C -17%
O=C(Nc1cccc(F)c1)C1CCN(S(=O)(=O)c2cccc3nsnc23)CC1 -9.69%
CCc1ccc(CN2CCc3nc(N4CCN(CC)CC4)ncc3C2)cc1 -24.2%
CN(C)c1ccc(CNC(=O)CCn2cccn2)cc1 3.76%
Cc1ccc(CCNC(=O)c2ccc3c(c2)N(Cc2cccc(Cl)c2)C(=O)c2ccccc2S3(=O)=O)cc1 -19.9%
Cc1cc(C)cc(OC(C)C(=O)Nc2c(C(=O)c3ccccc3)oc3ccccc23)c1 (configuration not stated) 0%
c1ccc(CSc2nc3ncccc3[nH]2)cc1 39.6%
CSc1ccc(C2c3c(oc4cc(C)cc(C)c4c3=O)C(=O)N2Cc2ccco2)cc1 (configuration not stated) 1.97%
CN(C)Cc1ccc(-c2nc3cccc4c3n2CCNC4=O)cc1 -3.52%
O=C1c2[nH]nc(-c3ccccc3O)c2C(c2cccc(OCc3ccccc3)c2)N1CCO (configuration not stated) -17.3%
CCN(CC)C(=O)Cn1c(=O)n(-c2ccc(Cl)cc2)c(=O)c2c3c(sc21)CCC3 0%
Cc1cn2c(=O)cc(COC(=O)c3cccc(NC(=O)c4ccccc4C)c3)nc2s1 -19.8%
COc1ccc(-n2nc(C)c3c(C(F)(F)F)cc(-c4cccnc4)nc32)cc1 -3.77%
COc1ccc(C(=O)COC(=O)C(Cc2c[nH]c3ccccc23)NC(=O)c2ccc(C(C)(C)C)cc2)cc1 (configuration not stated) -25.2%
CCOC(=O)c1cc(OC(=O)c2ccccc2C)n(-c2ccccc2)n1 -4.63%
CC1(C)NC(=O)N(c2ccc([N+](=O)[O-])c(C(F)(F)F)c2)C1=O
COCCCNC(=O)C1CCN(c2nc3ccc(C)cc3[nH]2)CC1 12.8%
COc1cccc(N2CCN(C(=O)CCS(=O)(=O)c3ccc4c(c3)oc(=O)n4C)CC2)c1 -12.5%
CC(C)(c1ccc(O)cc1)c1ccc(O)cc1 -21.3% [at 116 µM]
Cc1cc2oc(=O)cc(C)c2c2occ(-c3ccc(Cl)cc3)c12 -7.67%
Cc1cccc(N2CCN(C(=O)Cn3ncc4c5ccccc5n(C)c4c3=O)CC2)c1C 18.4%
COc1ccc(C(=O)Nc2ccc(-n3nncc3-c3ccccc3)cc2)cc1OC -23.2%
Cc1ccc2[nH]c3c(=O)n(CC(=O)N4CCCCC4)ncc3c2c1 12.5%
COc1ccc(OC)c(CNC(=O)C2CCN(c3nc4ccccc4nc3C(F)(F)F)CC2)c1 -4.52%
Cc1ccc(-n2nc(CO)c(C(=O)NCc3cccnc3)n2)cc1 -27.1%
CCc1ccc(S(=O)(=O)c2cn(Cc3ccccc3)c3cc(F)c(F)cc3c2=O)cc1 -17.6%
Cc1ccc(OCC(=O)Nc2ccc3nc(SCC(=O)N4CCOCC4)sc3c2)cc1 -7.87%
COc1ccccc1NC(=O)CSc1ncc2c(n1)-c1cc(Cl)ccc1N(Cc1ccccc1)S2(=O)=O -25.9%
CCCCNC(=O)CCCn1c(=O)c2ccccc2n(Cc2cccc(Cl)c2)c1=O -25.3%
O=C(NC1CCCC1)c1cc(Nc2cccc(C(F)(F)F)c2)nc2ccccc12 -13.4%
CCC(=O)N1CCc2cc(Br)cc(S(=O)(=O)CCC(=O)N3CCN(c4ccccc4F)CC3)c21 -5.52%
Cc1ccc(C(C)OC(=O)C2(C)CCC(C(=O)O)C2(C)C)cc1 (configuration not stated) 1.2%
NC(=O)c1nc(Nc2ccccc2)sc1NC(=O)c1ccccc1Br 1.18%
COCCCNC(=O)CSc1nc2c(sc3ccccc32)c(=O)n1CCc1ccccc1 0.781%
COc1cc(NC(=O)CSc2nc3ccccc3nc2Cc2ccc(Cl)cc2)cc(OC)c1 -7.61%
